The source of these data is PubChem BioAssay AID1346428 (National Center for Advancing Translational Sciences (NCATS), 2018).

The structures appear in SMILES notation. Screen size: about 48,000 compounds; about 1,200 (2.5%) were called active. Inconclusive results (about 2%) are left out.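 How the source made its calls: active means activation of at least 60% and not above a set upper limit (about 1 call in 100 departs from these limits); inconclusive means activation of 40% to 60%, or above that upper limit; inactive means activation under 40%.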 Some of the results follow.

The assay addresses Probable G-protein coupled receptor 32 (Homo sapiens) (UniProt O75388). As to the kind of experiment: qHTS for Agonists of Human Resolvin D1 Receptor DRV1. Further: 0% is about no effect. The following applies: CHO-K1 GPR32 beta-arrestin PathHunter luminescence, 90 min; at 76.9 µM; active compounds read high; zero percent set by DMSO-only wells. An outline of the steps: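 Beta-arrestin recruitment read-out: luminescence from complemented beta-Gal in CHO-K1 GPR32 PathHunter cells, measured 1 h after detection reagent at ambient temperature following 90 min compound exposure at 37 °C; DMSO served as basal (EC0) control.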
Chain of UniProt O75388 (O75388 whole entry, looked up): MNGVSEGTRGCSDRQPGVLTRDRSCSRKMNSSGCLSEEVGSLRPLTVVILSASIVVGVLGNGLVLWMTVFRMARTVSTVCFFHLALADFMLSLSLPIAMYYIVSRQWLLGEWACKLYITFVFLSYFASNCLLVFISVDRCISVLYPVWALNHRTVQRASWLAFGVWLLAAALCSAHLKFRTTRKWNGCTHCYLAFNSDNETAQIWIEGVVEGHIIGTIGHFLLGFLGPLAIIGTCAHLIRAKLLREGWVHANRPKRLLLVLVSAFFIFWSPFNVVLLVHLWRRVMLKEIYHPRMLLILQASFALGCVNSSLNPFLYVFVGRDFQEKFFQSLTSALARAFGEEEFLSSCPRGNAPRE
On to `CCCCC(=O)Nc1cc(C)c(O)c(-c2nc3ncccc3o2)c1`, for which the activation is inactive: -7.79%.

For the compound `Cc1cccc(C(=O)Nc2cc3c(cc2N2CCCCC2)n(C)c(=O)c(=O)n3C)c1`, the activation is inactive: 4.1%.

With `CC(=O)N1CCC2(CC1)OC(=O)C(C)=C2C(=O)Nc1cccc(Cl)c1C`, the activation was inactive: -12%.

With `O=C(CC1N=C2c3ccccc3N=C(SCc3ccccc3F)N2C1=O)NCCc1ccccc1` (centres undefined), the activation was inactive: 33.9%.

With `Cc1ccc(Cl)cc1Nc1nc2ccccc2c2nncn12`, the activation was inactive: -9.93%.

Turning to `Cc1ccsc1CCN1C(=O)N(c2ccccc2)C(=O)C1CC(=O)Nc1ccc(F)cc1` (centres undefined), the activation is inactive: -5.79%.

In the case of `COc1ccc(CCC(=O)NCc2ccc3c(c2)CCN3C(=O)c2ccc(F)cc2)cc1`, the activation was inactive: -17.6%.

With `COc1ccc(-c2nc3cc(NC(=O)Cc4ccc(Cl)cc4)ccc3o2)cc1OC`, the activation was inactive: 29.8%.

Turning to `Cc1ccc(CCNC(=O)CCN2N=C(c3ccc(C)cc3)CCC2=O)cc1`, the activation is inactive: -21.2%.

On to `CCOc1ccc(C(=O)Nc2cc(NC(=O)c3ccco3)ccc2OC)cc1Br`, for which the activation was inactive: 9.09%.

On to `CC(C)CC(=O)Nc1nnc(S(=O)(=O)N2CCCCCC2)s1`, for which the activation is inactive: -2%.

For the compound `CCOC(=O)c1ccc(NC(=O)Cn2nc(SC)c(S(=O)(=O)c3ccc(Cl)cc3)c2N)cc1`, the activation is active: 69.5%.

For `Cc1cccc(C)c1NC(=O)c1ccc2c(c1)N(Cc1cccc(Cl)c1)C(=O)c1ccccc1S2=O` (centres undefined), the activation is inactive: -12.5%.

As for `Cc1ccc(C(=O)N(Cc2sccc2C)C2CCS(=O)(=O)C2)cc1` (centres undefined), the activation is inactive: -10.9%.

As to `COc1ccccc1NC(=O)N1c2ccccc2Sc2ccccc21`, the activation is inactive: -19.2%.

In the case of `COc1ccc(OC)c(-n2nnc3c(sc4nc(C)c(Br)c(C)c43)c2=O)c1`, the activation was inactive: -2.3%.

For the compound `Cc1nc(C)c(-c2ccc(SCC(=O)Nc3ccc(Cl)c(Cl)c3)nn2)s1`, the activation was inactive: 36.7%.

`Cc1cccc(N2CCN(C(=O)c3cc4c(=O)oc5ccccc5c4s3)CC2C)c1` (centres undefined): the activation was inactive: 27.6%.

In the case of `COc1ccc(CCC(C)=O)cc1`, the activation was inactive: -8.68%.

`CC(C)CN(CC(C)C)C(=O)C1CCCN(S(=O)(=O)c2ccc3c(c2)oc(=O)n3C)C1` (centres undefined): the activation was inactive: -1.39%.

Regarding `COc1cccc(NC(=O)c2nn(-c3ccc(C)cc3)c(=O)n(C)c2=O)c1`, the activation was inactive: -17.2%.

As to `Cc1cc(C)c2nc(N3CCCC(C(=O)NCc4cccc(Cl)c4)C3)sc2c1` (centres undefined), the activation was inactive: -4.7%.

`COc1ccc(CNS(=O)(=O)c2cc3c(cc2C)n(C)c(=O)c(=O)n3C)cc1`: the activation is inactive: -5.53%.

With `Cc1ccc(NS(=O)(=O)c2ccc3c(c2)NC(=O)C(C)C(=O)N3)cc1F` (centres undefined), the activation is inactive: -7.01%.
